Measurements reported in the supplement of paper PMC10320760.
This is a noisy data set.

B1: Ydj1; a variant is named by its letters at X, in order (parent)
chain: MVKETKFYDILGVPVTATDVEIKKAYRKCALKYHPDKNPSEEAAEKFKEASAAYEILSDPEKRDIYDQFGEDGLSGAGGAGGFPGGGFGFGDDIFSQFFGAGGAQRPRGPQRGKDIKHEISASLEELYKGRTAKLALNKQILCKECEGRGGKKGAVKKCTSCNGQGIKFVTRQMGPMIQRFQTECDVCHGTGDIIDPKDRCKSCNGKKVENERKILEVHVEPGMKDGQRIVFKGEADQAPDVIPGDVVFIVSERPHKSFKRDGDDLVYEAEIDLLTAIAGGEFALEHVSGDWLKVGIVPGEVIAPGMRKVIEGKGMPIPKYGGYGNLIIKFTIKFPENHFTSEENLKKLEEILPPRIVPAIPKKATVDECVLADFDPAKYNRTRASRGGANYDSDEEEQGGEGVQCXXX

Variants of: B1
Assay: enrichment factor, frequency at 37 °C / frequency at 25 °C (thermotolerance selection) (ratio); higher = more growth at 37 °C, higher likelihood of farnesylation
Conditions: with Saccharomyces cerevisiae ydj1Δ (yWS304); selective temperature 37 °C; reference temperature 25 °C
For IST, the enrichment factor was 1.56. ISS showed an enrichment factor of 1.69. Variant ISE has an enrichment factor of 0.717. ISF gave an enrichment factor of 1.45. ISD showed an enrichment factor of 0.584. ISQ showed an enrichment factor of 1.58. Variant ISV has an enrichment factor of 2.2. ISK was tested, and the enrichment factor was 0.175. ISI showed an enrichment factor of 1.79. ISM was tested, and the enrichment factor was 1.59. ISL showed an enrichment factor of 1.28. ISG was tested, and the enrichment factor was 1.13. Work on ISC yielded an enrichment factor of 1.09. Variant ISH has an enrichment factor of 1.77. In the case of ISP, the enrichment factor is reported as 0.104. ISR gave an enrichment factor of 0.218. ISN gave an enrichment factor of 1.95. In the case of SSM, the enrichment factor is reported as 1.52. SSI was tested, and the enrichment factor was 2.02. SSN was tested, and the enrichment factor was 1.5. In the case of SSG, the enrichment factor is reported as 1.39. For SSR, the enrichment factor was 0.149. Work on SSS yielded an enrichment factor of 1.98. SSD gave an enrichment factor of 0.183. For SSP, the enrichment factor was 0.164. Work on SSH yielded an enrichment factor of 1.64. Variant SSQ has an enrichment factor of 1.68. For SST, the enrichment factor was 2.21. Work on SSF yielded an enrichment factor of 1.57. Work on SSK yielded an enrichment factor of 0.0613. SSE gave an enrichment factor of 0.127. Work on SSC yielded an enrichment factor of 1.04. SSL was tested, and the enrichment factor was 1.06. Work on RSS yielded an enrichment factor of 1.73. RSR gave an enrichment factor of 0.169. Work on RSN yielded an enrichment factor of 1.5. RSE was tested, and the enrichment factor was 0.302. With RSL the enrichment factor was 1.45. Work on RSC yielded an enrichment factor of 0.649. RST gave an enrichment factor of 1.32. In the case of RSV, the enrichment factor is reported as 1.52. Work on RSG yielded an enrichment factor of 1.12. Variant RSH has an enrichment factor of 1.94. In the case of RSI, the enrichment factor is reported as 1.51. With RSM the enrichment factor was 2.14. Variant RSF has an enrichment factor of 3.31. RSK was tested, and the enrichment factor was 0.146. Work on RSQ yielded an enrichment factor of 1.78. With RSP the enrichment factor was 0.0965. With RSD the enrichment factor was 1.04. Variant QSI has an enrichment factor of 1.82. In the case of QSD, the enrichment factor is reported as 0.176. QSE was tested, and the enrichment factor was 0.172. Variant QSQ has an enrichment factor of 1.73. Variant QSR has an enrichment factor of 0.151. QSS was tested, and the enrichment factor was 1.89. Work on QSV yielded an enrichment factor of 2.11. With QSC the enrichment factor was 2.04. QSG was tested, and the enrichment factor was 0.991. In the case of QST, the enrichment factor is reported as 2.12. In the case of QSK, the enrichment factor is reported as 0.15. QSP was tested, and the enrichment factor was 0.104. QSF gave an enrichment factor of 2.48. For QSM, the enrichment factor was 2.36. In the case of QSH, the enrichment factor is reported as 1.74. For QSN, the enrichment factor was 1.58. QSL was tested, and the enrichment factor was 1.77. Variant KSK has an enrichment factor of 0.195. Variant KSH has an enrichment factor of 1.38. KSN was tested, and the enrichment factor was 1.72. With KSE the enrichment factor was 0.163. Work on KSC yielded an enrichment factor of 1.54. For KSI, the enrichment factor was 1.08. KSR gave an enrichment factor of 0.361. KST showed an enrichment factor of 1.54. In the case of KSL, the enrichment factor is reported as 0.611. Variant KSV has an enrichment factor of 1.28. With KSM the enrichment factor was 1.41. Variant KSD has an enrichment factor of 0.807. KSS showed an enrichment factor of 1.76. KSQ gave an enrichment factor of 1.7. In the case of KSP, the enrichment factor is reported as 0.284. With KSF the enrichment factor was 1.66. KSG showed an enrichment factor of 0.462. In the case of ESI, the enrichment factor is reported as 1.5. ESC showed an enrichment factor of 1.78. Variant ESF has an enrichment factor of 1.42. With ESV the enrichment factor was 1.24. In the case of ESR, the enrichment factor is reported as 0.199. With ESM the enrichment factor was 1.35. Work on ESH yielded an enrichment factor of 1.32. ESG gave an enrichment factor of 0.467. ESN was tested, and the enrichment factor was 0.937. ESS was tested, and the enrichment factor was 1.27. Work on ESE yielded an enrichment factor of 0.0947. EST was tested, and the enrichment factor was 1.11. ESD was tested, and the enrichment factor was 0.207. In the case of ESQ, the enrichment factor is reported as 1.52. ESP showed an enrichment factor of 0.156. Work on ESK yielded an enrichment factor of 0.113. In the case of ESL, the enrichment factor is reported as 1.43. In the case of YSR, the enrichment factor is reported as 0.147. YSI showed an enrichment factor of 1.07. YSE was tested, and the enrichment factor was 0.131. Work on YSH yielded an enrichment factor of 3.34. In the case of YSS, the enrichment factor is reported as 2.34. In the case of YSF, the enrichment factor is reported as 2.7. With YSK the enrichment factor was 0.0998. YSQ gave an enrichment factor of 3.47. For YSP, the enrichment factor was 0.191. Work on YSG yielded an enrichment factor of 0.988. For YSL, the enrichment factor was 0.623. YST gave an enrichment factor of 1.41. With YSD the enrichment factor was 0.265. YSM was tested, and the enrichment factor was 2.18. YSC showed an enrichment factor of 3.47. In the case of YSN, the enrichment factor is reported as 1.32. In the case of VSD, the enrichment factor is reported as 0.881. With VSC the enrichment factor was 2.35. VSH gave an enrichment factor of 2.11. VSM showed an enrichment factor of 1.45. Work on VSE yielded an enrichment factor of 1.25. Work on VSS yielded an enrichment factor of 2.04. For VSI, the enrichment factor was 2.01. VSN gave an enrichment factor of 1.49. In the case of VSG, the enrichment factor is reported as 1.4. VSK gave an enrichment factor of 0.4. With VSR the enrichment factor was 0.157. Variant VSL has an enrichment factor of 2.56. Work on VSP yielded an enrichment factor of 0.0738. With VSQ the enrichment factor was 1.76. VST gave an enrichment factor of 2.13. With VSF the enrichment factor was 4.63. Variant TSL has an enrichment factor of 2.23. For TSM, the enrichment factor was 1.66. With TSS the enrichment factor was 1.58. TSN gave an enrichment factor of 1.69. TST showed an enrichment factor of 1.79. In the case of TSI, the enrichment factor is reported as 1.47. TSC gave an enrichment factor of 0.879. Variant TSF has an enrichment factor of 2.16. TSE gave an enrichment factor of 0.195. TSH gave an enrichment factor of 2.34. TSK showed an enrichment factor of 0.233. TSQ was tested, and the enrichment factor was 1.86. For TSG, the enrichment factor was 1.2. Work on TSR yielded an enrichment factor of 0.13. Variant TSP has an enrichment factor of 0.212. Work on TSD yielded an enrichment factor of 0.325. With LSK the enrichment factor was 0.134. In the case of LSR, the enrichment factor is reported as 0.127. LSS showed an enrichment factor of 1.53. LSH gave an enrichment factor of 1.58. With LSC the enrichment factor was 0.112. With LSN the enrichment factor was 1.27. LSM gave an enrichment factor of 1.69. With LSI the enrichment factor was 1.28. Work on LSP yielded an enrichment factor of 0.2. LST gave an enrichment factor of 1.67. Work on LSV yielded an enrichment factor of 1.62. Work on LSF yielded an enrichment factor of 2.17. LSD was tested, and the enrichment factor was 0.381. LSE showed an enrichment factor of 0.551. LSQ showed an enrichment factor of 1.32. For LSL, the enrichment factor was 1.58. LSG gave an enrichment factor of 1.57. WSS showed an enrichment factor of 1.73.
